In the supplement of paper PMC4967469:
The IC50 comes from the fitted curve, where viability falls to half of the control; a limit (>, <) means that the fit lies beyond the doses tested. AUC, from the same fit, is the share of area under the viability curve across the 256-fold dose range; the more sensitive the line, the further below 1. An inferred top dose comes from the curve model; the source does not state it.

Legend:
Experiment in all cases: Viability of human cancer cell lines after 72 h of drug (GDSC screen)
[1] = compound: CCN1CCN(Cc2ccc(NC(=O)c3ccc(C)c(Oc4ccnc5[nH]ccc45)c3)cc2C(F)(F)F)CC1 [NG-25]; conditions: top dose 10.24 µM; top dose inferred
Description: (§1)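 Human cancer cell lines in 384-well plates, medium with 10% serum, drug for 72 h over a 256-fold dose range (nine 2-fold or five 4-fold steps up to the top dose). Adherent lines were fixed and stained with the nucleic acid dye Syto60, suspension lines read with resazurin; signal relative to control wells, capped at 0 and 100%. One two-parameter sigmoid per drug and line, fitted in a mixed model over all curves with the slope shared within a line.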

[2] = compound: CCc1cc(Nc2nccc(-c3c(-c4ccc(OC)c(C(=O)Nc5c(F)cccc5F)c4)nc4ccccn34)n2)c(OC)cc1N1CCC(N2CCN(S(C)(=O)=O)CC2)CC1 [GSK-1904529A]; conditions: top dose 1.024 µM; top dose inferred
Description: as §1

[3] = compound: COc1ccccc1S(=O)(=O)Nc1ccc2c(c1)CN(C)C(=O)N2 [PFI-1]; conditions: top dose 10 µM; top dose inferred
Description: as §1

[4] = compound: Cn1cncc1[C@@](N)(c1ccc(Cl)cc1)c1ccc2c(c1)c(-c1cccc(Cl)c1)cc(=O)n2C [Tipifarnib]; conditions: top dose 16 µM; top dose inferred
Description: as §1

Row | Cell Line | AUC [1] | IC50 [1] [µM] | AUC [2] | IC50 [2] [µM] | AUC [3] | IC50 [3] [µM] | AUC [4] | IC50 [4] [µM]
1 | MDA-MB-157 (breast, adherent) | 0.968 | > 10.2 | 0.979 | > 1.02 | 0.894 | > 10 | 0.799 | 7.92
2 | SKN-3 (head and neck, adherent) | 0.853 | > 10.2 | 0.983 | > 1.02 | 0.786 | 5.19 | 0.98 | > 16
3 | PC-3 (prostate, adherent) | 0.935 | > 10.2 | 0.936 | > 1.02 | 0.831 | 8.35 | 0.814 | 11.2
4 | EFO-27 (ovary, adherent) | 0.84 | 9.81 | 0.931 | > 1.02 | 0.96 | > 10 | 0.474 | 0.834
5 | RO82-W-1 (thyroid, adherent) | 0.927 | > 10.2 | 0.955 | > 1.02 | 0.893 | > 10 | 0.752 | 6.66
6 | CS1 (bone, adherent) | 0.784 | 4.89 | 0.983 | > 1.02 | 0.937 | > 10 | 0.772 | 6.92
7 | JHU-022 (head and neck, adherent) | 0.899 | > 10.2 | 0.974 | > 1.02 | 0.839 | 9.64 | 0.846 | > 16
8 | D-392MG (glioma, adherent) | 0.815 | 8.44 | 0.978 | > 1.02 | 0.885 | > 10 | 0.951 | > 16
9 | CCF-STTG1 (glioma, adherent) | 0.851 | 7.92 | 0.985 | > 1.02 | 0.982 | > 10 | 0.826 | 9.75
10 | CAL-29 (bladder, adherent) | 0.885 | > 10.2 | 0.983 | > 1.02 | 0.782 | 4.52 | 0.725 | 4.62
11 | UACC-893 (breast, adherent) | 0.838 | > 10.2 | 0.971 | > 1.02 | 0.962 | > 10 | 0.746 | 6.59
12 | NCI-H1755 (lung adenocarcinoma, adherent) | 0.871 | > 10.2 | 0.98 | > 1.02 | 0.946 | > 10 | 0.842 | 13.9
13 | SK-MEL-28 (melanoma, adherent) | 0.893 | > 10.2 | 0.977 | > 1.02 | 0.805 | 4.94 | 0.876 | 15.4
14 | AU565 (breast, adherent) | 0.904 | > 10.2 | 0.907 | > 1.02 | 0.916 | > 10 | 0.574 | 1.63
15 | SNU-387 (liver, adherent) | 0.807 | 6.14 | 0.973 | > 1.02 | 0.872 | > 10 | 0.78 | 7.54
16 | SBC-3 (small cell lung carcinoma, adherent) | 0.783 | 3.89 | 0.94 | > 1.02 | 0.728 | 2.59 | 0.27 | 0.239
17 | COLO-679 (melanoma, adherent) | 0.984 | > 10.2 | 0.968 | > 1.02 | 0.859 | > 10 | 0.491 | 0.943
18 | HCC1937 (breast, adherent) | 0.965 | > 10.2 | 0.982 | > 1.02 | 0.928 | > 10 | 0.743 | 5.6
19 | NCI-H2452 (mesothelioma, adherent) | 0.971 | > 10.2 | 0.971 | > 1.02 | 0.882 | > 10 | 0.892 | > 16
20 | SNU-449 (liver, adherent) | 0.791 | 5.08 | 0.874 | > 1.02 | 0.926 | > 10 | 0.41 | 0.555
21 | HT-29 (large intestine, adherent) | 0.85 | 7.71 | 0.975 | > 1.02 | 0.83 | 6.25 | 0.459 | 0.774
22 | NCI-H441 (lung adenocarcinoma, adherent) | 0.981 | > 10.2 | 0.978 | > 1.02 | 0.929 | > 10 | 0.671 | 3.66
23 | JHH-6 (liver, adherent) | 0.857 | 8.54 | 0.972 | > 1.02 | 0.86 | 8.61 | 0.808 | 8.41
24 | NCI-H1688 (small cell lung carcinoma, adherent) | 0.777 | 4.55 | 0.986 | > 1.02 | 0.975 | > 10 | 0.851 | 14.3
25 | NCI-H1703 (lung adenocarcinoma, adherent) | 0.888 | > 10.2 | 0.981 | > 1.02 | 0.961 | > 10 | 0.827 | 12.9
26 | JHH-7 (liver, adherent) | 0.853 | 7.23 | 0.972 | > 1.02 | 0.844 | 6.5 | 0.474 | 0.851
27 | PA-TU-8988T (pancreas, adherent) | 0.915 | > 10.2 | 0.983 | > 1.02 | 0.769 | 3.79 | 0.731 | 4.56
